System: cough iinduced by citric acid in the guineapig
Assay: anti-cough activity: cough induced by citric acid in the guineapig
[1] = with respect to the controls, dose 1 mM/kg/i.p.

Compound	reduction of the cough [1]	reduction of the cough (dose 5 mg/kg i.p.)
O=C(O)CN1CCC(S)C1=O (stereo not drawn) [V, 3-mercapto-2-oxo-1-pyrrolidinyl acetic acid]	74%	
O=C(O)CN1CCC(SC(=O)c2cccs2)C1=O (stereo not drawn) [VI, 3-(2-thenoylthio)-2-oxo-1-pyrrolidinyl acetic acid]	68.50%	
COc1ccc2c3c1O[C@H]1[C@@H](O)C=C[C@H]4[C@@H](C2)N(C)CC[C@@]341 [codeine phosphate, reference compound]		87.00%
